Laboratory results from the supplement of paper PMC10724272.

Tests used:
Assay in all cases: CLSI broth microdilution.
[1] = compound: CCC(C)n1ncn(-c2ccc(N3CCN(c4ccc(OCC5COC(Cn6cncn6)(c6ccc(Cl)cc6Cl)O5)cc4)CC3)cc2)c1=O [itraconazole]
[2] = compound: CCCCCOc1ccc(-c2cc(-c3ccc(C(=O)N[C@H]4C[C@@H](O)[C@@H](O)NC(=O)[C@@H]5[C@@H](O)[C@@H](C)CN5C(=O)[C@H]([C@H](O)CC(N)=O)NC(=O)[C@H]([C@H](O)[C@@H](O)c5ccc(O)c(OS(=O)(=O)O)c5)NC(=O)[C@@H]5C[C@@H](O)CN5C(=O)[C@H]([C@@H](C)O)NC4=O)cc3)no2)cc1 [micafungin]
[3] = compound: CCCCCOc1ccc(-c2ccc(-c3ccc(C(=O)N[C@H]4C[C@@H](O)[C@@H](O)NC(=O)[C@@H]5[C@@H](O)[C@@H](C)CN5C(=O)[C@H]([C@@H](C)O)NC(=O)[C@H]([C@H](O)[C@@H](O)c5ccc(O)cc5)NC(=O)[C@@H]5C[C@@H](O)CN5C(=O)[C@H]([C@@H](C)O)NC4=O)cc3)cc2)cc1 [anidulafungin]
[4] = compound: CC[C@@H]([C@H](C)O)n1ncn(-c2ccc(N3CCN(c4ccc(OC[C@@H]5CO[C@@](Cn6cncn6)(c6ccc(F)cc6F)C5)cc4)CC3)cc2)c1=O [posaconazole]
[5] = compound: CC[C@H](C)C[C@H](C)CCCCCCCCC(=O)N[C@H]1C[C@@H](O)[C@@H](NCCN)NC(=O)[C@@H]2[C@@H](O)CCN2C(=O)[C@H]([C@H](O)CCN)NC(=O)[C@H]([C@H](O)[C@@H](O)c2ccc(O)cc2)NC(=O)[C@@H]2C[C@@H](O)CN2C(=O)[C@H]([C@@H](C)O)NC1=O [caspofungin]
[6] = compound: C[C@@H](c1ncncc1F)[C@](O)(Cn1cncn1)c1ccc(F)cc1F [voriconazole]
[7] = compound: C[C@@H]1[C@H](O)[C@@H](C)/C=C/C=C/C=C/C=C/C=C/C=C/C=C/[C@H](O[C@@H]2O[C@H](C)[C@@H](O)[C@H](N)[C@@H]2O)C[C@@H]2O[C@](O)(C[C@@H](O)C[C@@H](O)[C@H](O)CC[C@@H](O)C[C@@H](O)CC(=O)O[C@H]1C)C[C@H](O)[C@H]2C(=O)O [amphotericin B]
[8] = compound: Nc1[nH]c(=O)ncc1F [flucytosine]
[9] = compound: OC(Cn1cncn1)(Cn1cncn1)c1ccc(F)cc1F [fluconazole]

Row | Test System | MIC [1] | MIC [2] | MIC [3] | MIC [4] | MIC [5] | MIC [6] | MIC [7] | MIC [8] | MIC [9]
1 | Candida tropicalis isolate 418 (ERG11 copies: 2, Erg11p: no key change) | 0.25 mg/L [S] | 0.03 mg/L [S] | 0.06 mg/L [S] | 0.25 mg/L [S] | 0.06 mg/L [S] | 0.25 µg/mL | 0.25 mg/L [S] | ≤ 0.06 mg/L [S] | 2 mg/L [S]
2 | Candida tropicalis isolate 419 (ERG11 copies: 2, Erg11p: no key change) | 0.25 mg/L [S] | 0.03 mg/L [S] | 0.06 mg/L [S] | 0.25 mg/L [S] | 0.03 mg/L [S] | 0.06 mg/L [S] | 0.5 mg/L [S] | ≤ 0.06 mg/L [S] | 2 mg/L [S]
3 | Candida tropicalis isolate 420 (ERG11 copies: 2, Erg11p: G464S (heterozygous)) | ≥ 16 mg/L [R] | 0.03 mg/L [S] | 0.12 mg/L [S] | 1 mg/L [R] | 0.06 mg/L [S] | 1 mg/L [R] | 1 mg/L [S] | ≤ 0.06 mg/L [S] | 16 mg/L [R]
4 | Candida tropicalis isolate 421 (ERG11 copies: 2, Erg11p: no key change) | 0.25 mg/L [S] | 0.03 mg/L [S] | ≤ 0.015 mg/L [S] | 0.25 mg/L [S] | 0.015 mg/L [S] | 0.25 µg/mL | 1 mg/L [S] | ≤ 0.06 mg/L [S] | 4 µg/mL
5 | Candida tropicalis isolate 422 (ERG11 copies: 2, Erg11p: no key change) | 0.25 mg/L [S] | 0.015 mg/L [S] | ≤ 0.015 mg/L [S] | 0.25 mg/L [S] | 0.03 mg/L [S] | 0.12 mg/L [S] | 1 mg/L [S] | ≤ 0.06 mg/L [S] | 2 mg/L [S]
6 | Candida tropicalis isolate 423 (ERG11 copies: 8, Erg11p: Y132F, S154F (heterozygous)) | 0.5 mg/L [S] | 0.06 mg/L [S] | 0.12 mg/L [S] | 0.5 mg/L [R] | 0.06 mg/L [S] | ≥ 8 mg/L [R] | 0.5 mg/L [S] | ≤ 0.06 mg/L [S] | 512 mg/L [R]
7 | Candida tropicalis isolate 424 (ERG11 copies: 2, Erg11p: no key change) | 0.12 mg/L [S] | 0.015 mg/L [S] | 0.03 mg/L [S] | 0.25 mg/L [S] | 0.03 mg/L [S] | 0.06 mg/L [S] | 0.5 mg/L [S] | ≤ 0.06 mg/L [S] | 1 mg/L [S]
8 | Candida tropicalis isolate 425 (ERG11 copies: 2, Erg11p: no key change) | 0.5 mg/L [S] | 0.03 mg/L [S] | 0.03 mg/L [S] | 0.5 mg/L [R] | 0.03 mg/L [S] | 0.5 µg/mL | 1 mg/L [S] | ≤ 0.06 mg/L [S] | 2 mg/L [S]
9 | Candida tropicalis isolate 426 (ERG11 copies: 2, Erg11p: no key change) | 0.25 mg/L [S] | 0.03 mg/L [S] | 0.03 mg/L [S] | 0.25 mg/L [S] | 0.03 mg/L [S] | 0.12 mg/L [S] | 1 mg/L [S] | ≤ 0.06 mg/L [S] | 2 mg/L [S]
10 | Candida tropicalis isolate 427 (ERG11 copies: 2, Erg11p: no key change) | 0.25 mg/L [S] | 0.03 mg/L [S] | 0.12 mg/L [S] | 0.25 mg/L [S] | 0.03 mg/L [S] | 0.12 mg/L [S] | 0.5 mg/L [S] | ≤ 0.06 mg/L [S] | 1 mg/L [S]
11 | Candida tropicalis isolate 428 (ERG11 copies: 2, Erg11p: Y257H (homozygous)) | 0.5 mg/L [S] | 0.03 mg/L [S] | 0.12 mg/L [S] | 0.5 mg/L [R] | 0.03 mg/L [S] | 1 mg/L [R] | 1 mg/L [S] | ≤ 0.06 mg/L [S] | 8 mg/L [R]
12 | Candida tropicalis isolate 429 (ERG11 copies: 8, Erg11p: Y132F, S154F (heterozygous)) | 0.5 mg/L [S] | 0.03 mg/L [S] | ≤ 0.015 mg/L [S] | 0.5 mg/L [R] | 0.03 mg/L [S] | ≥ 8 mg/L [R] | 1 mg/L [S] | ≤ 0.06 mg/L [S] | 512 mg/L [R]
13 | Candida tropicalis isolate 430 (ERG11 copies: 2, Erg11p: no key change) | 0.015 mg/L [S] | 0.03 mg/L [S] | 0.03 mg/L [S] | 0.03 mg/L [S] | 0.03 mg/L [S] | ≤ 0.008 mg/L [S] | 0.5 mg/L [S] | ≤ 0.06 mg/L [S] | 0.12 mg/L [S]
14 | Candida tropicalis isolate 431 (ERG11 copies: 2, Erg11p: no key change) | 0.12 mg/L [S] | 0.015 mg/L [S] | ≤ 0.015 mg/L [S] | 0.12 mg/L [S] | 0.03 mg/L [S] | 0.12 mg/L [S] | 0.5 mg/L [S] | ≤ 0.06 mg/L [S] | 2 mg/L [S]
15 | Candida tropicalis isolate 432 (ERG11 copies: 2, Erg11p: no key change) | 0.12 mg/L [S] | 0.015 mg/L [S] | 0.03 mg/L [S] | 0.12 mg/L [S] | 0.06 mg/L [S] | 0.12 mg/L [S] | 0.5 mg/L [S] | ≤ 0.06 mg/L [S] | 1 mg/L [S]

MIC of invasive clinical C. tropicalis isolates, CLSI broth microdilution (fluconazole 0.12-256 mg/L, up to 1,024 for the azole-resistant cluster and its neighbour group; other ranges not stated); higher = less susceptible. Call: susceptible or wild type [S] / resistant or non-wild type [R] by CLSI breakpoints or cut-offs; intermediate and dose-dependent carry no call. '<=' and '>=' at the end values are inferred; the source marks only some of them. Isolates are numbered anew.
